Laboratory results published in PubChem BioAssay AID485294 (National Center for Advancing Translational Sciences (NCATS), 2010).
Out of some 370,000 compounds screened, about 150 (0.041%) were called active. Inconclusive results, whose numbers are uncertain, are shown with a selection of clear calls. Calls come from the whole dose curve; as a rule, active = well fitted inhibition curve with a large enough effect; inconclusive = small, poorly fitted or top-dose-only effect; inactive = flat fitted curve, though single readings scatter. Potencies of inconclusive entries are left out as doubtful fits.

Each compound was assayed against Beta-lactamase (Escherichia coli (strain K12)) (UniProt P00811) (assay: qHTS Inhibitors of AmpC Beta-Lactamase (assay with detergent)). Settings: AmpC hydrolysis of nitrocefin, absorbance 480 nm, 0.01% Triton; series mostly up to 114 µM.
Chain of UniProt P00811 (P00811 whole entry, looked up): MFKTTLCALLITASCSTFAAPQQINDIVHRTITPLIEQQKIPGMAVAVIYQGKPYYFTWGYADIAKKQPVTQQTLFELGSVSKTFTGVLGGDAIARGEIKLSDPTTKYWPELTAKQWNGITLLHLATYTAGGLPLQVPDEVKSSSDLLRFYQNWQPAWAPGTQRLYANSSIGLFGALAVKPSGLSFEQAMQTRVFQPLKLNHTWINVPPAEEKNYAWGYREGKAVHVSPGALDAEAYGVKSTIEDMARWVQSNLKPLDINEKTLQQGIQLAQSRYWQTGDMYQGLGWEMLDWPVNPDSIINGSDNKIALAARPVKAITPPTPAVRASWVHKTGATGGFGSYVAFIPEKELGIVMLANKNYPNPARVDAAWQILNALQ
Procedure, shortened: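 20 mM phosphate pH 7.0 + 0.01% (detergent screen) or 0.0001% Triton X-100; 5.3 nM AmpC reagent; cpd preinc 15 min RT; nitrocefin (800 uM stock) to start; A480 q20 s × 4 min; Activity was normalised to no-enzyme and no-compound control wells.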
Note: nearly all actives have a fitted effect of over 25% in size.
Potency is the fitted concentration of half-maximal effect; tags give direction and shape of the fitted curve.

Structure (SMILES)	Potency
COc1cccc(OCc2cc(C(=O)N3C[C@H]4C[C@@H](C3)c3cccc(=O)n3C4)no2)c1	inactive
CCN(CC)C(=O)CSc1nnc(-c2ccc(O)cc2)n1CC1CCCO1 (stereo unspecified)	inconclusive [inhibitor, single point]
O=C(CSCCc1ccccn1)Nc1cccnc1Cl	inconclusive [inhibitor, full curve, poor fit]
O=C(Nc1cccc(NC(=O)c2cccs2)c1)c1ccc2c(c1)OCO2	inconclusive [inhibitor, full curve, poor fit]
Cc1ccc(S(=O)(=O)N2CCCCC2)cc1NC(=O)CNC(C)c1ccc(Cl)c(Cl)c1 (stereo unspecified)	inactive
COc1ccc(CN(CCCN2CCOCC2)C(=O)Nc2cccc(Cl)c2)cc1OC	inconclusive [inhibitor, full curve, poor fit]
Cc1ccc2nc(-c3ccccc3)c(NC(=O)c3ccco3)n2c1	inactive
CCCC(=O)Nc1nc2ccc(OC)cc2s1	inconclusive [inhibitor, full curve, poor fit]
O=C(NCc1cccs1)C1CCN(S(=O)(=O)c2cccc3cccnc23)CC1	inconclusive [inhibitor, full curve]
CN1N=C(C(C)(C)C)CSC1=Nc1ccc(F)cc1	inactive
NC(N)=NS(=O)(=O)c1ccc(N)cc1	inconclusive [inhibitor, full curve, poor fit]
CC(=O)c1ccc(NC(=O)CSC(C)C)cc1	inconclusive [inhibitor, full curve, poor fit]
CC1(C)Nc2ccccc2C(=O)N1NS(=O)(=O)c1ccccc1	inconclusive [inhibitor, single point]
Clc1ccc(-c2nnc(-c3ccc(Br)o3)o2)c(Cl)c1	inconclusive [inhibitor, partial curve, poor fit]
O=C(CCc1nnc2ccc(NCCCN3CCCC3=O)nn12)NCc1ccccc1Cl	inconclusive [inhibitor, full curve, poor fit]
Cc1ccccc1SCC(=O)NNC(=O)c1ccncc1	inconclusive [inhibitor, full curve, poor fit]
Cc1ccc(S(=O)(=O)Nc2cc3c4c(c2)C(C)C(=O)N4CCC3)cc1 (stereo unspecified)	inactive
O=c1[nH]c(CN2CCOCC2)nc2scc(-c3ccccc3)c12	inconclusive [inhibitor, full curve]
COc1cc(CNc2ccc(N3CCOCC3)cc2)ccc1OCC(=O)NC(C)(C)C	inconclusive [inhibitor, full curve, poor fit]
O=C(CCN1C(=O)COc2ccccc21)NCCCN1CCc2ccccc2C1	inconclusive [inhibitor, full curve, poor fit]
COCCCNC(=O)CCC(=O)N1Cc2cccc(OC)c2Oc2ncccc21	inactive
CCOC(=O)N1CCN(C(=O)Nc2ccc3nc(C)sc3c2)CC1	inconclusive [inhibitor, full curve, poor fit]
CC(C)CC(=O)C1=C(O)C(=O)N(Cc2ccccc2)C1c1ccccc1 (stereo unspecified)	inconclusive [inhibitor, full curve, poor fit]
CCC(C(=O)NC1C(=O)N2C(C(=O)O)=C(CSc3nnc(C)s3)CSC12)c1ccccc1 (stereo unspecified)	inconclusive [inhibitor, partial curve, poor fit]

Structure (SMILES)	Potency
C/C(=N\NC(=O)c1cc2ccccc2cc1O)c1ccc(C)o1	inactive
c1coc(-c2nc3ccccc3nc2-c2ccco2)c1	inconclusive [inhibitor, full curve, poor fit]
O=C(CCCSc1nc2ccccc2s1)NCc1ccco1	inconclusive [inhibitor, full curve, poor fit]
O=C1C(Cc2ccc3[nH]ccc3c2)NC(=S)N1c1ccccc1 (stereo unspecified)	inconclusive [inhibitor, full curve, poor fit]
CCOC(=O)C1CCN(S(=O)(=O)c2ccc3c(c2)CC(C)N3C(=O)C2CCC2)CC1 (stereo unspecified)	inactive
CN1CCN(Cc2c(F)cccc2Cl)CC1	inactive
COc1cc(C)c(NC(=S)Nc2cccc(Cl)c2C)cc1OC	inactive
O=C(NCC1CCCO1)c1ccc(C(=O)NCC2CCCO2)cc1 (stereo unspecified)	inactive
COc1ccccc1NS(=O)(=O)c1ccc(Cl)cc1	inconclusive [inhibitor, partial curve, poor fit]
O=C1NC(=O)N(Cc2cccs2)C(=O)/C1=C/c1ccc(N2CCOCC2)cc1	inactive
O=C(CCC(=O)N1CCN(Cc2ccc(F)cc2)CC1)Nc1nnc(C2CCCCC2)s1	inactive
COc1cccc(-c2csc(N3CCN(C(=O)Nc4ccccc4OC)CC3)n2)c1	inactive
O=C(CN1CCN(S(=O)(=O)c2cc(C(F)(F)F)ccc2Cl)CC1)N1CCc2ccccc2C1	inconclusive [inhibitor, full curve, poor fit]
O=C(Nc1cccc(C(=O)OCc2cc(=O)n3nc(C4CC4)sc3n2)c1)c1cccc(F)c1	inactive
Cc1ccc(S(=O)(=O)N2CCCCC2)cc1NC(=O)COC(=O)c1ccc2c(c1)OCO2	inconclusive [inhibitor, full curve, poor fit]
COc1cc2c(cc1OC)C(c1ccc(F)cc1)N(c1cccc(C#N)c1)C(=O)C2 (stereo unspecified)	inactive
COc1ccc(CCN(Cc2cccs2)S(=O)(=O)c2ccc(-n3cnnn3)c(OC)c2)cc1OC	inconclusive [inhibitor, full curve, poor fit]
O=C(N/N=C/c1ccccc1OC(=O)c1ccc2c(c1)OCO2)c1cccc(F)c1	inactive
Cc1csc(C(C)N(C)C(=O)c2ccc(OC3CCN(Cc4ccccn4)CC3)cc2)n1 (stereo unspecified)	inconclusive [inhibitor, single point]
CN(C)c1ccc(C(c2ccc(N(C)C)cc2)c2ccc([N+](=O)[O-])cc2)cc1	inactive
COc1ccc(-c2nc3ccccc3s2)cc1NC(=O)COc1ccccc1C	inactive
C[C@H](NC(N)=O)C(=O)OCC(=O)Nc1ccc(OC(F)F)cc1	inconclusive [inhibitor, full curve, poor fit]
COC(=O)C(CC(=O)c1ccc(Br)cc1)n1ccnc1 (stereo unspecified)	inactive
COc1cc(C(C)=O)ccc1OCc1cc(C(=O)N2CCSCC2)no1	inconclusive [inhibitor, full curve]

Structure (SMILES)	Potency
NC(=O)C(CC(=O)O)NC(=O)[C@@H]1CCCNc2c(I)cc([N+](=O)[O-])cc2C(=O)N[C@@H](CO)C(=O)N[C@@H](Cc2ccc(O)cc2)C(=O)N1 (stereo partly specified)	inconclusive [inhibitor, single point]
CCSC1=C(C#N)C(c2cccc(Br)c2)CC(=O)N1 (stereo unspecified)	inconclusive [inhibitor, single point]
O=C(NC1CCCCC1)C(c1ccccn1)N(C(=O)Cc1cccs1)c1ccc(Cl)cc1 (stereo unspecified)	inactive
COc1ccc(NC(=S)N2CCN(S(=O)(=O)c3ccccc3)CC2)cc1OC	inconclusive [inhibitor, full curve, poor fit]
Cc1noc(C)c1COc1cccc(C(=O)N2CCN(C/C=C/c3ccccc3)CC2)c1	inactive
CCOc1ccc(N(CC(=O)NC2CCCCC2)S(=O)(=O)c2c(C)noc2C)cc1	inconclusive [inhibitor, full curve, poor fit]
Cc1ccc(N=Nc2c(C)[nH]n(C(N)=S)c2=O)cc1C	inactive
CC(C)Cn1c(N)c(C(=O)COC(=O)c2cnc(Cl)c(Cl)c2)c(=O)n(C)c1=O	inconclusive [inhibitor, single point]
COC(=O)c1ccc(CSc2ccc3nnc(-c4cccnc4)n3n2)o1	inconclusive [inhibitor, full curve, poor fit]
Cc1ccc(C(=O)Nc2cccc(C(=O)NCc3ccccc3)c2)o1	inconclusive [inhibitor, full curve, poor fit]
COc1ccc(C(NC(=O)/C=C\c2ccco2)c2ccc(OC)c(OC)c2)cc1 (stereo unspecified)	inconclusive [inhibitor, full curve, poor fit]
COc1ccccc1OCCn1c(=S)[nH]c2ccccc21	inconclusive [inhibitor, partial curve]
CC(=O)Nc1ccc(OCc2cnc(Cl)s2)cc1	inactive
Cc1ccc2oc(=O)c3cc(C(=O)Nc4ccc(F)cc4F)sc3c2c1	inactive
COc1cccc(CNc2ccc(F)c(Cl)c2)c1O	inactive
CN(C)CCNC(=O)c1ccc(COCC(F)(F)F)cc1	inconclusive [inhibitor, partial curve]
Fc1ccc(Nc2nc3ccccc3c3nncn23)c(Cl)c1	inactive
Cc1cccc(NC(=O)N2CCCc3ccccc32)c1C	inconclusive [inhibitor, full curve, poor fit]
Cc1csc(NC(=O)c2cc3c(s2)CCCCC3)n1	inconclusive [inhibitor, partial curve]
COc1ccc(Cn2c(CNC(=O)c3ccc(N(C)C)cc3)nc3cccnc32)cc1	inactive
COc1ccc2c(CN(C)c3ccccc3)cc(=O)oc2c1	inactive
CC1(C)Cc2c(cnn2-c2ccccc2)C(=O)/C1=N\NC(=O)c1ccccc1O	inconclusive [inhibitor, full curve, poor fit]
CC(C)Oc1ccc(CN2CCC(n3nccc3NC(=O)CCc3ccccc3)CC2)cc1	inconclusive [inhibitor, full curve]
